Publication PMC6374363
Results are given in words; binding and its absence hold for the method and conditions named. For some assays here: Binding seen in cells or lysates may run through a third protein. Some binding calls cover weakened binding; strength is not graded here. Each block holds one binder with its values, some of them ahead of it.

Tests used:
[1] = molecular target: T1, endogenous MEILB2 (mouse testis) (mouse (endogenous in testis)) (UniProt Q9D4G2); test: co-IP; mouse testis extract; anti-MEILB2 antibody or control IgG on Dynabeads protein A, 6 h at 4 °C; wash with high-salt buffer (400 mM KCl); elution with 0.1 M glycine pH 2.5; immunoblot
T1 sequence: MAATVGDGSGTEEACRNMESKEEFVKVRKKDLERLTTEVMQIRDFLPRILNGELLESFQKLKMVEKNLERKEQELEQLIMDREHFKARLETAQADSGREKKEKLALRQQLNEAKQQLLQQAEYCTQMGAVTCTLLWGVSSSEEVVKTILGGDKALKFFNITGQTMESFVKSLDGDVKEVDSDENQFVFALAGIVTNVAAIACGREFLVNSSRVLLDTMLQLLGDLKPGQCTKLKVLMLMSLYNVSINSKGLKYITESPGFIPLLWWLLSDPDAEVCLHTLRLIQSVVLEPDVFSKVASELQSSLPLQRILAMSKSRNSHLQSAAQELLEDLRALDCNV

[2] = molecular target: T2, LexA-Meilb2 (MEILB2/HSF2BP, bait of the yeast two-hybrid screening) (mouse) (UniProt Q9D4G2); test: two-hybrid; Hybrigenics screening: LexA-Meilb2 bait (pB27) against a random-primed mouse testis cDNA library in pP6; mating of YHGX13 and L40ΔGal4 strains; selection without tryptophan, leucine and histidine, with 50 mM 3-aminotriazole
T2 sequence: T1 sequence

B1: endogenous DMC1 (mouse testis) (protein, UniProt Q61880 1-340)
chain: MKEDQVVQEESGFQDDEESLFQDIDLLQKHGINMADIKKLKSVGICTIKGIQMTTRRALCNVKGLSEAKVEKIKEAANKLIEPGFLTAFQYSERRKMVFHITTGSQEFDKLLGGGIESMAITEAFGEFRTGKTQLSHTLCVTAQLPGTGGYSGGKIIFIDTENTFRPDRLRDIADRFNVDHEAVLDNVLYARAYTSEHQMELLDYVAAKFHEEAGIFKLLIIDSIMALFRVDFSGRGELAERQQKLAQMLSRLQKISEEYNVAVFVTNQMTADPGATMTFQADPKKPIGGHILAHASTTRISLRKGRGELRIAKIYDSPEMPENEATFAITAGGIGDAKE
binding [1]: no binding

B3: endogenous SPATA22 (mouse testis) (protein, UniProt Q5SV06 1-358)
chain: MKRNLNESSARSTAGCLPVPLFNQKKRNRQPLTSNPLQNDPGVSTVSDSYGSPSFPTDWAWEAVNPEVAPLKKTVNTGQIPASASYPWRSQDSVSKSIQSNAERSQSAWGYRGNNRNTSLRTWDFRPQHKTVSPAANSEFSSCPVNLGAQQQKQFQTPEFPNLPGHKEAEVPRQTCLSKLPGSTMKGPDRASALQAFKPSFQQNPFKKTVLGDIPRENSLKEGTLHQLKEKDNSLRIISAVIESMKYWRAHVQKTVLLFEILAVLDSAVTSGPHYSKTFLMRDGKNILPCVFYEIDRELPRLIRGRVHRCVGHYDPDKNIFKCVSVRPASASEQKTFQAFVTIADAEMKYHTKVTNEM
binding [1]: binds

B4: BRCA2 peptide a.a. 2028–2339 (prey clone of the yeast two-hybrid screening) (domain or fragment, UniProt P97929 2028-2339)
chain: KVKGMLEEFDLIRTEHTLQHSPIPEDVSKILPQPCAEIRTPEYPVNSKLQKTYNDKSSLPSNYKESGSSGNTQSIEVSLQLSQMERNQDTQLVLGTKVSHSKANLLGKEQTLPQNIKVKTDEMKTFSDVPVKTNVGEYYSKESENYFETEAVESAKAFMEDDELTDSEQTHAKCSLFTCPQNETLFNSRTRKRGGVTVDAVGQPPIKRSLLNEFDRIIESKGKSLTPSKSTPDGTVKDRSLFTHHMSLEPVTCGPFCSSKERQGAQRPHLTSPAQELLSKGHPWRHSALEKSPSSPIVSILPAHDVSATRTE
binding [2]: binds

More lines, now with the values ahead:

binding [2]: binds
B2: BRCA2 peptide a.a. 2117–2371 (prey clone of the yeast two-hybrid screening) (domain or fragment, UniProt P97929 2117-2371)
chain: TQLVLGTKVSHSKANLLGKEQTLPQNIKVKTDEMKTFSDVPVKTNVGEYYSKESENYFETEAVESAKAFMEDDELTDSEQTHAKCSLFTCPQNETLFNSRTRKRGGVTVDAVGQPPIKRSLLNEFDRIIESKGKSLTPSKSTPDGTVKDRSLFTHHMSLEPVTCGPFCSSKERQGAQRPHLTSPAQELLSKGHPWRHSALEKSPSSPIVSILPAHDVSATRTERTRHSGKSTKVFVPPFKMKSQFHGDEHFNSKN

binding [2]: binds
B5: BRCA2 peptide a.a. 1933–2385 (prey clone of the yeast two-hybrid screening) (domain or fragment, UniProt P97929 1933-2385)
chain: TASGKAIQVSDASLEKARQVFSEMDGDAKQLSSMVSLEGNEKPHHSVKRENSVVHSTQGVLSLPKPLPGNVNSSVFSGFSTAGGKLVTVSESALHKVKGMLEEFDLIRTEHTLQHSPIPEDVSKILPQPCAEIRTPEYPVNSKLQKTYNDKSSLPSNYKESGSSGNTQSIEVSLQLSQMERNQDTQLVLGTKVSHSKANLLGKEQTLPQNIKVKTDEMKTFSDVPVKTNVGEYYSKESENYFETEAVESAKAFMEDDELTDSEQTHAKCSLFTCPQNETLFNSRTRKRGGVTVDAVGQPPIKRSLLNEFDRIIESKGKSLTPSKSTPDGTVKDRSLFTHHMSLEPVTCGPFCSSKERQGAQRPHLTSPAQELLSKGHPWRHSALEKSPSSPIVSILPAHDVSATRTERTRHSGKSTKVFVPPFKMKSQFHGDEHFNSKNVNLEGKNQKSTDGD
